# Source: a compilation of properties of binary mixtures (doi:10.1021/jp202828z)
# Some of these densities may be calculated back from excess volumes.
# Assay: xn = mol fraction of the nth substance listed
# Conditions: 101 kPa
smiles,measurement,setting,value
CCCC[n+]1ccccc1.F[B-](F)(F)F + CCCCO,mass density,"298.15 K, x2 = 0",1214.1 kg/m3
same,mass density,"298.15 K, x2 = 0.1037",1192.1 kg/m3
same,mass density,"298.15 K, x2 = 0.1548",1180.4 kg/m3
same,mass density,"298.15 K, x2 = 0.2039",1168.7 kg/m3
same,mass density,"298.15 K, x2 = 0.2503",1156.9 kg/m3
same,mass density,"298.15 K, x2 = 0.3002",1143.6 kg/m3
same,mass density,"318.15 K, x1 = 0.0025",792.6 kg/m3
same,mass density,"318.15 K, x1 = 0.0047",794.5 kg/m3
same,mass density,"318.15 K, x2 = 0",1200.2 kg/m3
same,mass density,"318.15 K, x2 = 0.301",1130.3 kg/m3
same,mass density,"318.15 K, x2 = 0.407",1099.5 kg/m3
CCCCO + CCCC[n+]1ccccc1.F[B-](F)(F)F,mass density,"298.15 K, x1 = 1",805.9 kg/m3
same,mass density,"318.15 K, x1 = 1",790.3 kg/m3
CCCO + CCCC[n+]1ccccc1.F[B-](F)(F)F,mass density,"298.15 K, x1 = 1",799.5 kg/m3
same,mass density,"318.15 K, x1 = 1",784.7 kg/m3
CCO + CCCC[n+]1ccccc1.F[B-](F)(F)F,mass density,"298.15 K, x1 = 1",785.2 kg/m3
same,mass density,"318.15 K, x1 = 1",767.8 kg/m3
CO + CCCC[n+]1ccccc1.F[B-](F)(F)F,mass density,"298.15 K, x1 = 1",786.8 kg/m3
same,mass density,"318.15 K, x1 = 1",767.8 kg/m3
CCCC[n+]1ccccc1.F[B-](F)(F)F + CCCO,mass density,"298.15 K, x1 = 0.0024",802.6 kg/m3
same,mass density,"298.15 K, x2 = 0",1214.1 kg/m3
same,mass density,"298.15 K, x2 = 0.1561",1185.6 kg/m3
same,mass density,"298.15 K, x2 = 0.2037",1175.8 kg/m3
same,mass density,"298.15 K, x2 = 0.3093",1151.8 kg/m3
same,mass density,"298.15 K, x2 = 0.3984",1128.3 kg/m3
same,mass density,"298.15 K, x2 = 0.4665",1108.2 kg/m3
same,mass density,"318.15 K, x2 = 0",1200.2 kg/m3
same,mass density,"318.15 K, x2 = 0.0266",1194.4 kg/m3
same,mass density,"318.15 K, x2 = 0.0563",1189.3 kg/m3
same,mass density,"318.15 K, x2 = 0.1254",1176.8 kg/m3
same,mass density,"318.15 K, x2 = 0.1743",1167.1 kg/m3
same,mass density,"318.15 K, x2 = 0.2849",1142.8 kg/m3
same,mass density,"318.15 K, x2 = 0.4039",1112.1 kg/m3
same,mass density,"318.15 K, x2 = 0.4918",1085.2 kg/m3
same,mass density,"318.15 K, x2 = 0.7071",998.3 kg/m3
same,mass density,"318.15 K, x2 = 0.8242",932 kg/m3
same,mass density,"318.15 K, x2 = 0.9186",862.4 kg/m3
same,mass density,"318.15 K, x2 = 0.9552",830.1 kg/m3
same,mass density,"318.15 K, x2 = 0.9656",820 kg/m3
same,mass density,"318.15 K, x2 = 0.973",812.7 kg/m3
same,mass density,"318.15 K, x2 = 0.9781",807.8 kg/m3
CCCC[n+]1ccccc1.F[B-](F)(F)F + CCO,mass density,"298.15 K, x2 = 0",1214.1 kg/m3
same,mass density,"298.15 K, x2 = 0.2115",1181.8 kg/m3
same,mass density,"298.15 K, x2 = 0.2991",1165.2 kg/m3
same,mass density,"298.15 K, x2 = 0.3544",1153.5 kg/m3
same,mass density,"298.15 K, x2 = 0.3992",1143 kg/m3
same,mass density,"298.15 K, x2 = 0.5018",1114.5 kg/m3
same,mass density,"298.15 K, x2 = 0.6003",1081.1 kg/m3
same,mass density,"298.15 K, x2 = 0.6992",1038.5 kg/m3
same,mass density,"298.15 K, x2 = 0.799",981.2 kg/m3
same,mass density,"298.15 K, x2 = 0.852",942.4 kg/m3
same,mass density,"298.15 K, x2 = 0.9041",897.3 kg/m3
same,mass density,"298.15 K, x2 = 0.9506",848.9 kg/m3
same,mass density,"318.15 K, x2 = 0",1200.2 kg/m3
same,mass density,"318.15 K, x2 = 0.1105",1184.6 kg/m3
same,mass density,"318.15 K, x2 = 0.1761",1174.1 kg/m3
same,mass density,"318.15 K, x2 = 0.2133",1167.8 kg/m3
same,mass density,"318.15 K, x2 = 0.3101",1148.6 kg/m3
same,mass density,"318.15 K, x2 = 0.4062",1127 kg/m3
same,mass density,"318.15 K, x2 = 0.5077",1098.6 kg/m3
same,mass density,"318.15 K, x2 = 0.6124",1061.8 kg/m3
same,mass density,"318.15 K, x2 = 0.702",1022.1 kg/m3
same,mass density,"318.15 K, x2 = 0.8037",962.8 kg/m3
same,mass density,"318.15 K, x2 = 0.8539",926.1 kg/m3
same,mass density,"318.15 K, x2 = 0.904",881.9 kg/m3
same,mass density,"318.15 K, x2 = 0.9509",832.3 kg/m3
CCCC[n+]1ccccc1.F[B-](F)(F)F + CO,mass density,"298.15 K, x2 = 0",1214.1 kg/m3
same,mass density,"298.15 K, x2 = 0.0549",1209 kg/m3
same,mass density,"298.15 K, x2 = 0.0975",1204.7 kg/m3
same,mass density,"298.15 K, x2 = 0.2036",1192.8 kg/m3
same,mass density,"298.15 K, x2 = 0.3009",1179.5 kg/m3
same,mass density,"298.15 K, x2 = 0.5036",1141.6 kg/m3
same,mass density,"298.15 K, x2 = 0.596",1116.7 kg/m3
same,mass density,"298.15 K, x2 = 0.6994",1078.6 kg/m3
same,mass density,"298.15 K, x2 = 0.749",1054.9 kg/m3
same,mass density,"298.15 K, x2 = 0.8003",1024.6 kg/m3
same,mass density,"298.15 K, x2 = 0.8508",987.1 kg/m3
same,mass density,"298.15 K, x2 = 0.8993",940.6 kg/m3
same,mass density,"318.15 K, x2 = 0",1200.2 kg/m3
same,mass density,"318.15 K, x2 = 0.1069",1189.9 kg/m3
same,mass density,"318.15 K, x2 = 0.1459",1185.6 kg/m3
same,mass density,"318.15 K, x2 = 0.3129",1163.4 kg/m3
same,mass density,"318.15 K, x2 = 0.4086",1147.1 kg/m3
same,mass density,"318.15 K, x2 = 0.508",1125.7 kg/m3
same,mass density,"318.15 K, x2 = 0.6069",1098.5 kg/m3
same,mass density,"318.15 K, x2 = 0.7007",1062.8 kg/m3
same,mass density,"318.15 K, x2 = 0.8017",1007.7 kg/m3
same,mass density,"318.15 K, x2 = 0.8531",968.5 kg/m3
same,mass density,"318.15 K, x2 = 0.9022",920.8 kg/m3
same,mass density,"318.15 K, x2 = 0.9516",856.8 kg/m3
CCCC[n+]1ccccc1.F[B-](F)(F)F + O,mass density,"298.15 K, x2 = 0.1932",1206.4 kg/m3
same,mass density,"298.15 K, x2 = 0.309",1201 kg/m3
same,mass density,"298.15 K, x2 = 0.3952",1195.6 kg/m3
same,mass density,"298.15 K, x2 = 0.6045",1178.2 kg/m3
same,mass density,"298.15 K, x2 = 0.7062",1164.2 kg/m3
same,mass density,"298.15 K, x2 = 0.8516",1127.7 kg/m3
same,mass density,"298.15 K, x2 = 0.9013",1105.3 kg/m3
same,mass density,"318.15 K, x2 = 0",1200.2 kg/m3
same,mass density,"318.15 K, x2 = 0.0715",1197.4 kg/m3
same,mass density,"318.15 K, x2 = 0.1455",1194.5 kg/m3
same,mass density,"318.15 K, x2 = 0.2168",1191.6 kg/m3
same,mass density,"318.15 K, x2 = 0.3236",1185.8 kg/m3
same,mass density,"318.15 K, x2 = 0.4039",1181.1 kg/m3
same,mass density,"318.15 K, x2 = 0.5126",1172.9 kg/m3
same,mass density,"318.15 K, x2 = 0.6087",1163.2 kg/m3
same,mass density,"318.15 K, x2 = 0.754",1140.8 kg/m3
same,mass density,"318.15 K, x2 = 0.8529",1112.9 kg/m3
same,mass density,"318.15 K, x2 = 0.9008",1091.3 kg/m3
